# In article PMC4336329 (PLoS ONE, 2015):
# Hit rate of the full screen: of about 310,000 compounds, about 14,000 (4.5%) showed an effect of 50% or more. The effect is printed as a negative number. The list shows a part of the results.
# Molecular target: human ether-à-go-go-related gene (hERG) potassium channel (human, UniProt Q12809)
# Experiment: primary screen, population patch clamp on CHO cells stably expressing hERG
# 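Also: peak tail current of the secondary pulse compared with the same well before compound.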
# human ether-à-go-go-related gene (hERG) potassium channel, sequence (Q12809 whole entry, looked up): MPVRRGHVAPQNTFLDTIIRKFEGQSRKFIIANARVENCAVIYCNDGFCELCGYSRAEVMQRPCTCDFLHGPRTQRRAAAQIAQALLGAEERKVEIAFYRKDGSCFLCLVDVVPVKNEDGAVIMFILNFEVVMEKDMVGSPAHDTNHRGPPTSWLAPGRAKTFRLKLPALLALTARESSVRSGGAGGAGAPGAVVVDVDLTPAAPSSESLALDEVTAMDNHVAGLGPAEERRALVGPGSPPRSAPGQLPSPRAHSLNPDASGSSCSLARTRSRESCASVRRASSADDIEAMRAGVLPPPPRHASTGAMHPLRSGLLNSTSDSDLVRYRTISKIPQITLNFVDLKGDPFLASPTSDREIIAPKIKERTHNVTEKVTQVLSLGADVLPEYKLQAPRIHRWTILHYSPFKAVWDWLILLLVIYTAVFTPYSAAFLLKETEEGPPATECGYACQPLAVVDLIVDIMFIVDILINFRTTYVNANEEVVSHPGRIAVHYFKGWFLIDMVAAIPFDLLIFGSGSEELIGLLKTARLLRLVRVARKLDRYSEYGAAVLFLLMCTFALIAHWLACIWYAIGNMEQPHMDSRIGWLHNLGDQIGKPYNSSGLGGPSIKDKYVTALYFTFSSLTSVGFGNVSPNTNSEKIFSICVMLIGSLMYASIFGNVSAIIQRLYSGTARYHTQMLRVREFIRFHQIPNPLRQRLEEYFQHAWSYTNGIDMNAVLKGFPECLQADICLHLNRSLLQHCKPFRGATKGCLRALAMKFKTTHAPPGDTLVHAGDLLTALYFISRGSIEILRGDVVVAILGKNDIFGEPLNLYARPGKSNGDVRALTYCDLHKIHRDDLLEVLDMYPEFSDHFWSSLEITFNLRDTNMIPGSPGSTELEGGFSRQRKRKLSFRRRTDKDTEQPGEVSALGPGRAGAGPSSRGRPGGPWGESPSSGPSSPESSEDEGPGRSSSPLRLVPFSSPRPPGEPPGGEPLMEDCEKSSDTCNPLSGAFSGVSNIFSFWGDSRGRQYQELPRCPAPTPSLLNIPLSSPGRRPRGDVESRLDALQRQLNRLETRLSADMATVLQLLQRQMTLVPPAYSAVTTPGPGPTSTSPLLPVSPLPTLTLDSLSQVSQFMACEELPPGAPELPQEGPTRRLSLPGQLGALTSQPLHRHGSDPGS
row,SMILES,"hERG current change (%, negative = inhibition) at 10uM [%]"
1,CCOCc1nnc(NC(=O)C2CC(=O)N(C3CCCC3)C2)s1 (centres unmarked),4.92
2,Cc1cccc(C)c1NC(=O)NC1(C(=O)NCCCN2CCOCC2)CCCCC1,6.43
3,NS(=O)(=O)c1ccc(NC(=O)COC(=O)c2c3c(nc4ccccc24)/C(=C\c2ccc4c(c2)OCO4)CCC3)cc1,2.38
4,CCC1CCc2sc(C(=O)NCC(c3ccc(OC)cc3)N3CCCC3)cc2C1 (centres unmarked),-71
5,Nc1ccc(-n2nncc2-c2ccco2)cc1,-1.01
6,CC(C)C[C@H](NC(=O)[C@@H]1Cc2ccccc2CN1)C(=O)Nc1ccc(C(C)C)cc1,-14.6
7,CSc1nccn1CC(=O)Nc1ccc(F)cc1,-0.384
8,Cc1ccc(C)c(OCCCC(=O)NC2CCCCC2)c1,6.91
9,CC(=O)Nc1ccc2c3c(cccc13)CC2,17.5
10,COc1ccc(NC(=O)Nc2ccccc2SC)cc1,9.99
11,COc1ccc(CCNC(=O)c2cc(-c3ccccc3)c(N3CCOCC3)s2)c(OC)c1OC,-0.505
12,COc1ccc(C(C)=O)cc1COC(=O)c1ccc2c(c1)OCCO2,13.4
13,O=c1oc2ccccc2c2oc3cc(O)c(O)cc3c12,-28.8
14,Cc1csc2ncc(C(=O)N3c4ccccc4CC3C)c(=O)n12 (centres unmarked),11.2
15,Cc1ccc2oc(=O)c(/C=C(\O)c3cccs3)nc2c1,9.84
16,NC(=O)CNC(=O)c1cccc(Cl)c1,18.6
17,Cc1nc2cc(-c3ccc(Cl)cc3)nn2c(C)c1CCC(=O)NCc1ccco1,-41.9
18,O=C(Nc1ccc(-c2csc(Nc3ccccc3)n2)cc1)c1cc([N+](=O)[O-])cc(C(F)(F)F)c1,-8.78
19,COc1ccc(C(=O)CCN2CCC(C)CC2)cc1.Cl,-30
20,COc1cccc(C2C(C#N)=C(N)OC3=C2C(=O)CC(c2ccco2)C3)c1OCc1ccc(F)cc1 (centres unmarked),4.07
21,Cc1ccc(S(=O)(=O)Cc2ccc(C(=O)O)o2)cc1,-6.05
22,Cc1cc(C)c2c(-n3cccc3)nn(C)c2n1,8.9

row,SMILES,"hERG current change (%, negative = inhibition) at 10uM [%]"
1,CC1CN(C(=O)COC(=O)c2c(Cl)cccc2Cl)CC(C)O1 (centres unmarked),6.73
2,COc1ccc(OC)c2sc(N3CCN(c4ccccc4)CC3)nc12,7.88
3,Cc1ccc(C(=O)NC(=S)NCc2cccnc2)cc1,-7.52
4,CC(C)(C)N1CC(c2nc3ccccc3n2Cc2ccc(F)cc2)CC1=O (centres unmarked),-36.7
5,COc1ccccc1C(O)(c1ccccc1)C(CN1CCOCC1)c1ccccc1.Cl (centres unmarked),-1.97
6,Cc1cc(/C=C(\C#N)C(=O)OCC(=O)Nc2ccc(OC(F)F)cc2)c(C)n1CC(C)C,-1.08
7,O=C(CSCC(=O)OCn1nnc2ccccc2c1=O)Nc1ccc(Cl)cc1,-3.73
8,COc1ccc(CNC(=O)c2cc(=O)c3cc(C)c(C)cc3o2)cc1,19.3
9,COc1ccc(C2CC(=O)c3c([nH]c(C(=O)OC(C)C)c3C)C2)cc1OC (centres unmarked),-3.77
10,Clc1ccccc1-c1nnc(-c2cccnc2)o1,1.46
11,O=C(CN1C(=O)C2CCCCN2C(=O)c2ccccc21)N1CCCc2ccccc21 (centres unmarked),6.8
12,CCc1nc(Nc2ccc(OC)c(OC)c2)c2nnn(Cc3ccccc3Cl)c2n1,8.6
13,CS(=O)(=O)N1N=C(c2ccc(Br)cc2)CC1c1cccs1 (centres unmarked),18.9
14,Cn1c(CBr)c(C(=O)c2ccc([N+](=O)[O-])cc2)c(=O)n(C)c1=O,-11
15,CC(NC(=O)CCN1C(=O)c2ccccc2S1(=O)=O)c1ccccc1 (centres unmarked),7.92
16,O=C(N/N=C/c1cccnc1)c1ccc(Cn2cc([N+](=O)[O-])cn2)o1,-8.7
17,CCN(CC)CCCNC(=O)c1nn2c(C(F)(F)F)cc(-c3ccccc3)nc2c1Cl,-29.3
18,CC(C)(C#N)Nn1cnnc1,17.1
19,O=C(CNC(=O)c1ccc(Br)o1)NNC(=O)COc1ccccc1Cl,-3.14
20,N/C(=N\OC(=O)COc1ccc(Br)cc1)c1cccc([N+](=O)[O-])c1,-15.4
21,CCO[C@H]1OC(C(=O)NCc2ccccc2)=C[C@@H](c2ccccc2)[C@@H]1CCCO,-19.6
22,Cc1ccc(-c2csc3nc(SCC(N)=O)n(Cc4ccccc4)c(=O)c23)cc1,-22.7
